Whole data set: some 81,000 sequences, median “one-hybrid fitness for binding NBS DNA” near -0.1, cut for the highest 2% near 0.36. The list shows a part of the results.

B1: Caulobacter ParB omega fusion; a variant is named by its letters at X, in order, B8GW30 (parent)
chain: MESVVVGEPGMSEGRRGLGRGLSALLGEVDAAPAQAPGEQLGGSREAPIEILQRNPDQPRRTFREEDLEDLSNSIREKGVLQPILVRPSPDTAGEYQIVAGERAWRAAQRAGLKTVPIMVRELDDLAVLEIGIIENVQRADLNVLEEALSYKVLMEKFERTQENIAQTIGKSXSHVANXMRLLXLPDEVQSYLVSGELTAXHARAIAAAADPVALAKQIIEGGLSVRETEALARKAPNLSAGKSKGGRPPRVKDTDTQALESDLSSVLGLDVSIDHRGSTGTLTITYATLEQLDDLCNRLTRGI

Variants of B1 are the subject of the experiment. Put plainly: one-hybrid fitness for binding NBS DNA (the Noc-binding site; scaled: cognate 1, non-cognate 0); higher = stronger binding. Particulars: with NBS DNA site. In outline: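 On M9-minus-histidine containing 0.1 mM IPTG and 5 mM 3-AT, E. coli USO cells with a HIS3 reporter, site 19 bp from the promoter, grew 48 hours at 37°C to select Caulobacter ParB libraries randomised at four specificity codons. Plasmids from before and after were Illumina-sequenced, with three replicate libraries pooled and variants under 10 reads left out. Fitness is the log change in variant-to-wild-type read ratio, rescaled against cognate and non-cognate.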
LVRI: the “one-hybrid fitness for binding NBS DNA” value was no more than 0.2.
Take ALAR: the “one-hybrid fitness for binding NBS DNA” value was no more than 0.2.
As to TSQN, the “one-hybrid fitness for binding NBS DNA” value was no more than 0.2.
Then TCKQ, with no more than 0.2; and CNAC, with no more than 0.2.
With LMRV the figure was no more than 0.2.
For the variant HIRC, the “one-hybrid fitness for binding NBS DNA” value is no more than 0.2.
With GQSG the figure was no more than 0.2; with PMSN, no more than 0.2; with RVHH, no more than 0.2.
In the case of RTRK, the “one-hybrid fitness for binding NBS DNA” value was found to be 0.252.
With APIG the figure was no more than 0.2; with NVTG, no more than 0.2; with GMSA, no more than 0.2.
Then VQVT, with no more than 0.2.
Consider HKCS, for which the “one-hybrid fitness for binding NBS DNA” value was no more than 0.2.
With QAVS the figure was 0.226; with MSSF, no more than 0.2; with DHSK, no more than 0.2.
With NSNI the figure was no more than 0.2.
With WETR the figure was no more than 0.2; with ETSY, no more than 0.2.
Turning to SFAL, the “one-hybrid fitness for binding NBS DNA” value was no more than 0.2.
Turning to TKQQ, the “one-hybrid fitness for binding NBS DNA” value was no more than 0.2.
Then GSIP, with no more than 0.2; and DGSA, with no more than 0.2.
Then NRFA, with no more than 0.2; and WSFR, with no more than 0.2.
Then PIGY, with no more than 0.2; and EFKC, with no more than 0.2.
As for QITC, the “one-hybrid fitness for binding NBS DNA” value was no more than 0.2.
Then YALG, with no more than 0.2; and MFIR, with no more than 0.2; and ADHL, with no more than 0.2.
Then QSPP, with no more than 0.2; and QMDF, with no more than 0.2; and HQPV, with no more than 0.2.
Then HTRY, with no more than 0.2; and THVC, with no more than 0.2.
With AYWI, the “one-hybrid fitness for binding NBS DNA” value is no more than 0.2.
With SNHR the figure was no more than 0.2.
With NIGS the figure was no more than 0.2; with TVVY, no more than 0.2.
PNER: the “one-hybrid fitness for binding NBS DNA” value was no more than 0.2.
As for YCLR, the “one-hybrid fitness for binding NBS DNA” value is no more than 0.2.
With SKCR the figure was no more than 0.2; with STIL, no more than 0.2.
For the variant LNRS, the “one-hybrid fitness for binding NBS DNA” value is no more than 0.2.
With EYHD the figure was no more than 0.2; with SKIM, no more than 0.2.
As for PHGE, the “one-hybrid fitness for binding NBS DNA” value is no more than 0.2.
For the variant RYRK, the “one-hybrid fitness for binding NBS DNA” value is no more than 0.2.
With SAYQ, the “one-hybrid fitness for binding NBS DNA” value is no more than 0.2.
Then KLRC, with no more than 0.2; and IKCS, with no more than 0.2; and HING, with no more than 0.2.
For CTCI, the “one-hybrid fitness for binding NBS DNA” value was no more than 0.2.
Then GDMC, with no more than 0.2.
With TAEM the figure was no more than 0.2; with SPLI, no more than 0.2.
With AIHV the figure was no more than 0.2; with ILQN, no more than 0.2; with LAWF, no more than 0.2.
For IQKR, the “one-hybrid fitness for binding NBS DNA” value came to 0.259.
RNYS: the “one-hybrid fitness for binding NBS DNA” value was no more than 0.2.
With NPLM the figure was no more than 0.2.
Then GSGS, with no more than 0.2; and SYGT, with no more than 0.2; and AQPL, with no more than 0.2.
Then KWLS, with no more than 0.2; and KCTY, with no more than 0.2; and FWRG, with no more than 0.2.
Take TEKN: the “one-hybrid fitness for binding NBS DNA” value was no more than 0.2.
For the variant IGSL, the “one-hybrid fitness for binding NBS DNA” value was no more than 0.2.
For the variant THAH, the “one-hybrid fitness for binding NBS DNA” value was no more than 0.2.
Then YCRS, with no more than 0.2; and PDSD, with no more than 0.2; and VTML, with no more than 0.2.
Take DSPV: the “one-hybrid fitness for binding NBS DNA” value was no more than 0.2.
Then HPME, with no more than 0.2; and IVGC, with no more than 0.2; and PADH, with no more than 0.2.
With VMQF, the “one-hybrid fitness for binding NBS DNA” value was no more than 0.2.
Take KSPT: the “one-hybrid fitness for binding NBS DNA” value was no more than 0.2.
With AHVW, the “one-hybrid fitness for binding NBS DNA” value was no more than 0.2.
With VQVF the figure was no more than 0.2; with SHVL, no more than 0.2; with DSKS, no more than 0.2.
Then ADTL, with no more than 0.2; and NLLY, with no more than 0.2.
For TSIG, the “one-hybrid fitness for binding NBS DNA” value was no more than 0.2.
Then NNQI, with no more than 0.2.
As to MITL, the “one-hybrid fitness for binding NBS DNA” value is no more than 0.2.
Then SASS, with no more than 0.2; and EHTV, with no more than 0.2; and LHHV, with no more than 0.2.
Turning to DMAV, the “one-hybrid fitness for binding NBS DNA” value was no more than 0.2.
Regarding METR, the “one-hybrid fitness for binding NBS DNA” value is no more than 0.2.
With ERAD the figure was no more than 0.2; with SEES, no more than 0.2.
With AYGR the figure was no more than 0.2; with LPTD, no more than 0.2; with AMGT, no more than 0.2.
Then KAPG, with no more than 0.2; and CVHS, with no more than 0.2.
With DGSF, the “one-hybrid fitness for binding NBS DNA” value is no more than 0.2.
In the case of IGVF, the “one-hybrid fitness for binding NBS DNA” value is no more than 0.2.
Turning to TTLF, the “one-hybrid fitness for binding NBS DNA” value was no more than 0.2.
With SIGG the figure was no more than 0.2; with EHRL, no more than 0.2; with THYE, no more than 0.2.
On to QENR, for which the “one-hybrid fitness for binding NBS DNA” value was no more than 0.2.
With KRLW the figure was no more than 0.2.
With DYTS the figure was no more than 0.2; with QPTG, no more than 0.2.
Take NARW: the “one-hybrid fitness for binding NBS DNA” value was no more than 0.2.
With RNYW the figure was no more than 0.2.
Then SDAA, with no more than 0.2; and MNVC, with no more than 0.2; and SEWA, with no more than 0.2.
In the case of VHKR, the “one-hybrid fitness for binding NBS DNA” value is 0.277.
For the variant HGLV, the “one-hybrid fitness for binding NBS DNA” value was no more than 0.2.
HYRI: the “one-hybrid fitness for binding NBS DNA” value was no more than 0.2.
With LRWT the figure was no more than 0.2.
Then NDPI, with no more than 0.2; and YMMR, with no more than 0.2.
Then MDVV, with no more than 0.2; and PERL, with no more than 0.2; and DIPA, with no more than 0.2.
For SKSR, the “one-hybrid fitness for binding NBS DNA” value is no more than 0.2.
With TPIR the figure was no more than 0.2; with NNAR, no more than 0.2.
With KCKA the figure was no more than 0.2; with ESTN, no more than 0.2.
As for HTRR, the “one-hybrid fitness for binding NBS DNA” value was found to be 0.244.
In the case of VAFR, the “one-hybrid fitness for binding NBS DNA” value is no more than 0.2.
Then HFRS, with no more than 0.2; and FLAR, with no more than 0.2.
With RNYF the figure was no more than 0.2; with PMLA, no more than 0.2.
Take PPTI: the “one-hybrid fitness for binding NBS DNA” value is no more than 0.2.
In the case of AAVY, the “one-hybrid fitness for binding NBS DNA” value is no more than 0.2.
Consider RWRT, for which the “one-hybrid fitness for binding NBS DNA” value was no more than 0.2.
Then RQCL, with no more than 0.2.
Then MVST, with no more than 0.2; and AIWS, with no more than 0.2; and DMHR, with no more than 0.2.
Then ARAP, with no more than 0.2.
As to HAFS, the “one-hybrid fitness for binding NBS DNA” value is no more than 0.2.
With TDEV, the “one-hybrid fitness for binding NBS DNA” value is no more than 0.2.
On to PCHS, for which the “one-hybrid fitness for binding NBS DNA” value was no more than 0.2.
With WATG, the “one-hybrid fitness for binding NBS DNA” value is no more than 0.2.
Then PFMY, with no more than 0.2; and PICS, with no more than 0.2; and STWE, with no more than 0.2.
MKTA: the “one-hybrid fitness for binding NBS DNA” value was no more than 0.2.
On to PNTK, for which the “one-hybrid fitness for binding NBS DNA” value is no more than 0.2.
Consider NYYC, for which the “one-hybrid fitness for binding NBS DNA” value is no more than 0.2.
Then SRGY, with no more than 0.2; and TMKT, with no more than 0.2.
With PFAR the figure was no more than 0.2; with LGGK, no more than 0.2.
Then SWQF, with no more than 0.2; and VPAC, with no more than 0.2.
As to RFPG, the “one-hybrid fitness for binding NBS DNA” value was no more than 0.2.
Then TEED, with no more than 0.2; and DDAI, with no more than 0.2; and QHVA, with no more than 0.2.
Then TATD, with no more than 0.2; and IFDG, with no more than 0.2; and FSMG, with no more than 0.2.
Then APAT, with no more than 0.2.
On to HAQP, for which the “one-hybrid fitness for binding NBS DNA” value is no more than 0.2.
Then SWRA, with no more than 0.2; and QCMS, with 0.379.
For the variant WPYS, the “one-hybrid fitness for binding NBS DNA” value is no more than 0.2.
For the variant QQPY, the “one-hybrid fitness for binding NBS DNA” value is no more than 0.2.
For PKTL, the “one-hybrid fitness for binding NBS DNA” value was no more than 0.2.
Then QEPF, with no more than 0.2.
Consider AMTS, for which the “one-hybrid fitness for binding NBS DNA” value was no more than 0.2.
Then PPQF, with no more than 0.2.
With PLRK the figure was no more than 0.2; with DPGL, no more than 0.2.
In the case of YYAQ, the “one-hybrid fitness for binding NBS DNA” value was no more than 0.2.
Regarding CQRE, the “one-hybrid fitness for binding NBS DNA” value is no more than 0.2.
For TYVI, the “one-hybrid fitness for binding NBS DNA” value is no more than 0.2.
With FVLV the figure was no more than 0.2; with RRQW, no more than 0.2; with GAVT, no more than 0.2.
Then PLTI, with no more than 0.2; and RTEC, with no more than 0.2.
Take TYTV: the “one-hybrid fitness for binding NBS DNA” value was no more than 0.2.
With HVHA the figure was no more than 0.2; with HEAT, no more than 0.2; with SVCI, no more than 0.2.

For the origin of these results see a collection of fitness landscapes (doi:10.1016/j.celrep.2020.107928).
